# Measured values reported in paper PMC12136788.
# The other results are listed elsewhere or left out.
# B1: chr17:28717212:28717708:-|CDS|ENSG00000109113|control|control|control (ssRNA)
# RNA: GGGAGUUCUACAGUCCGACGAUCGGUGGUCGUAGCGUCUCCGAGACCGCGGACUCCCGUAGGGUCCCCGUGGCCCCGAGUUGUAGUCGGGACACCCCGGCCGCGGGUGAUCGUCGGGUCUCCACGCGCCCGGGUCGCUGACGCCAACAGAGGAUUGAGCAUCA
# B2: chr22:29695108:29695209:+|3pUTR|ENSG00000186575|msi1|total|mutant (ssRNA)
# RNA: GGGAGUUCUACAGUCCGACGAUCGUGUGUGUGUGUCUUGCACUCCAGAGCUGACCUCCACCGCCCAGCCUGGGAAGUCAUUGCCGGGAGUGAGACACUGAAGCCCUGAGAAGCCAGUGCCAUCAUCCCCACCCCGCCCAGGGUCAACAGAGGAUUGAGCAUCA
# B3: chr7:100040983:100041096:+|3pUTR|ENSG00000106261|unk|FALSE|bound_elsewhere (ssRNA)
# RNA: GGGAGUUCUACAGUCCGACGAUCGAUAGCCAAGCAAAAUCAGUAAUUAUUUUAAAAUGAACAUAUGUAUUUUUAUUAACUUUUAGUUAAAUACAGAUUUUACAACGAGGUCAGCAUAAGCCUAAAUCUAUAUAGAGGGCUAACCAACAGAGGAUUGAGCAUCA
# B4: chr3:94060950:94061511:-|CDS|ENSG00000178700|control|control|control (ssRNA)
# RNA: GGGAGUUCUACAGUCCGACGAUCAGUAGACAUGAUUUGGAUAGUUGGUGGCAGUUCUGUUUAUAAGGAAGCCAUGAAUCACCUAGGCCAUCUUAAACUAUUUGUGACAAGGAUCAUGCAGGACUUUGAAAGUGACACGUUUUUCAACAGAGGAUUGAGCAUCA
# B5: chr4:41699229:41699330:+|3pUTR|ENSG00000064042|msi1|FALSE|unique (ssRNA)
# RNA: GGGAGUUCUACAGUCCGACGAUCGAUUACAUGAAUAUUGCACAUUCCCUUCUGGUUUCACAAACCCAUUUAUACAUAUUUCUUAGUGAGGCUCAUUGUACAUGUAUUGAAGCUAGAAUCGAGUCAAGAAAAAUAAAGCCCCAUCAACAGAGGAUUGAGCAUCA
# B6: ENSG00000198589:be:win_7651|CDS|ENSG00000198589|bound_else_gene|NA|bound_elsewhere_windowed (ssRNA)
# RNA: GGGAGUUCUACAGUCCGACGAUCGACCAGCCAUACCAGCUGCCAGUGGAAAUCGAUCCUCUCAUAGCCAGCAAUACAGGAAUGCACAGGAGGCAAAUCACUGACCUUUUAGACCAAAGUAUUCAAGUGCAUUCCCAGUGCUUUCAACAGAGGAUUGAGCAUCA
# B7: chr17:28897780:28898440:-|three_prime_utr|ENSG00000167536|control|control|control (ssRNA)
# RNA: GGGAGUUCUACAGUCCGACGAUCUGAAGGAAUAAUGGGUGAUUAUUUCUUCCUGAGAGUGACAGUAACCCCAGAUGGAGAGAUAGGGGUAUGCUAGACACUGUGCUUCUCGGAAAUUUGGAUGUAGUAUUUUCAGGCCCCACCCAACAGAGGAUUGAGCAUCA
# B8: chr9:121180810:121180911:-|3pUTR|ENSG00000119396|msi1|total|mutant (ssRNA)
# RNA: GGGAGUUCUACAGUCCGACGAUCUUUGGAUAAAUUUCCUGUUGUGUGGGUGGCAUUUUUCUUAACGAGAUUUGCUUCUGUCUCCGCCUCACACAGGGAAAAUAUCCAUUUAUCUUCUCUCUCGUGCUUAAUUAACCGCUUUAUCAACAGAGGAUUGAGCAUCA
# B9: chr1:213241217:213241334:+|CDS|ENSG00000136643|unk|total|mutant (ssRNA)
# RNA: GGGAGUUCUACAGUCCGACGAUCAGUUCUCCAAGAACAUCAGAUUCCCUCAGCCGAUCAAAAAACCGCCCCAUGGAAUUCUUCCGGACCGACAGUAAGGACCGCGCAAGUGAACUCCUGGGACUUGACUUUGGAGAAAAAUUGCAACAGAGGAUUGAGCAUCA
# B10: ENSG00000050165:stop:overlap|stop_codon|ENSG00000050165|stop_codon|NA|stop_codon (ssRNA)
# RNA: GGGAGUUCUACAGUCCGACGAUCAGAUGGCGCUGAGGGAGCCUGCGGCUGCCGCCGCUGCACUGCUGGGAGGGGAAGAGAUUUAGAUCUGGACCAGGCUGUGGGUAGAUGUGCAAUAGAAAUAGCUAAUUUAUUUCCCCAGGUCAACAGAGGAUUGAGCAUCA
# B11: chr6:75256125:75256201:-|CDS_3pUTR|ENSG00000112697|msi1_unk|FALSE|overlapping (ssRNA)
# RNA: GGGAGUUCUACAGUCCGACGAUCUUUGGGGAUUGCUUACAUCGCUGUUGGAUCCAUCUCCUUCCUUCUGGGAGUUGUACUGCUAGUAAUUAAUCAUAAAUAUAGAAACAGUAGUAAUACAGCUGACAUUACCAUUUAAUUUUACAACAGAGGAUUGAGCAUCA
# B12: ENSG00000107863:be:win_2901|CDS|ENSG00000107863|bound_else_gene|NA|bound_elsewhere_windowed (ssRNA)
# RNA: GGGAGUUCUACAGUCCGACGAUCUCAUUCACUUUACCUGUACAAAGAUAAAAGAGAGCAGACGACUCCGUCUGAGGAAGAGCAGCCCAUCAGUGUUAAUGCUUGCUUGAUAGACAUCUCUUACAGUGAGACCAAGAGGAAAAACAACAGAGGAUUGAGCAUCA
# B13: chr3:10940499:10940600:+|3pUTR|ENSG00000132164|unk|total|mutant (ssRNA)
# RNA: GGGAGUUCUACAGUCCGACGAUCGGGGAGGGCAAUGUGGGGGCAGGGGAACAUGUCAUUGUGAUGACUUUUUUGAUAUUCAUCCGAAACAAUACAUCCUUUCUGAGAUAUUUACAGUAUUAUUAAAAAAUGAAAAAGGUUGUACAACAGAGGAUUGAGCAUCA
# B14: chr5:74627411:74627511:-|3pUTR|ENSG00000171617|msi1_unk|FALSE|overlapping (ssRNA)
# RNA: GGGAGUUCUACAGUCCGACGAUCUUUGUAAAACUGUUAUUUUUUUUUUUUUCACAAUGUGAAACUGAAGGUCAAUAAAUUAUUAGAGAUUUUCUCUUCAUUAUGUGUGUGGGUCUUCAUUUGAAUAAGACACAAUUUGAGGCACAACAGAGGAUUGAGCAUCA
# B15: ENSG00000215021:stop:overlap|stop_codon|ENSG00000215021|stop_codon|NA|stop_codon (ssRNA)
# RNA: GGGAGUUCUACAGUCCGACGAUCCUACAGAUGGUGAAUAUCUCCCUGCGAGUGUUGUCUCGACCCAAUGCUCAGGAGCUUCCUAGCAUGUACCAGCGCCUAGGGCUGGACUACGAGGAACGAGUGUUGCCGUCCAUUGUCAACCAACAGAGGAUUGAGCAUCA
# B16: chr5:150657389:150657496:+|3pUTR|ENSG00000171992|unk|total|mutant (ssRNA)
# RNA: GGGAGUUCUACAGUCCGACGAUCCUCUCUCUCUCUCUCACACACACACACACACACACACACACACACACACACACACACACCCGUCCGUGCCUUGGAUGAGGCGGGGCAGUGUGUAUAUGGACCCCUGGACUUGCUACCUUCCAACAGAGGAUUGAGCAUCA
# B17: chr5:173956200:173956301:+|3pUTR|ENSG00000113742|unk|FALSE|unique (ssRNA)
# RNA: GGGAGUUCUACAGUCCGACGAUCCCCCUUCCUCAACCUCUUCACGCUGGCAUGUCCUUUUGUAGCAGUCUGUAACUUAACUAUAGUAUAAUGAAAAGAAUGACCUAUAAUAUAGGUGUUUUGUAGAUUCUUGUGUCACUGCAACAACAGAGGAUUGAGCAUCA
# B18: chr8:116854276:116854437:-|CDS|ENSG00000164754|unk|FALSE|bound_elsewhere (ssRNA)
# RNA: GGGAGUUCUACAGUCCGACGAUCAGGAAGCUAAUUGUUGACAGUGUCAAAGAGUUGGAUAGCAAGACAAUUAGAGCCCAACUUAGUGAUUAUUCAGAUAUUGUUACUACUUUGGAUCUGGCACCGCCCACCAAGAAAUUGAUGCAACAGAGGAUUGAGCAUCA
# B19: chr6:52500910:52501011:-|3pUTR|ENSG00000065308|msi1|FALSE|unique (ssRNA)
# RNA: GGGAGUUCUACAGUCCGACGAUCUAAUAACUGCAAAUCGCAUGUUCAGCCAGCAGCCUCCUAAGCCCACCUUCCUCCCCCAUUAGAGAACACCCAUCCUAGGUGCUCUCCAGGCUGUGUCAUUGGCAGGGCUUCACAUGCAGGCAACAGAGGAUUGAGCAUCA
# B20: chr21:43758806:43758907:+|3pUTR|ENSG00000160209|msi1|total|mutant (ssRNA)
# RNA: GGGAGUUCUACAGUCCGACGAUCACUUUCUUAAUCCAGUUUUUCAAACUUCUCCCUGCCGACCGUAAGGAUGAAUUCCACAACCGGAUCCUUUUUAAAAUCGAUUUUAAAUUGUUGCCCCGUCCUGCCAAGGUUAUUAUGUGCCAACAGAGGAUUGAGCAUCA
# B21: chr1:54043363:54043464:-|CDS|ENSG00000116209|msi1|FALSE|unique (ssRNA)
# RNA: GGGAGUUCUACAGUCCGACGAUCCGCACAGAGCUUCAUAACCUCUUCAUGGACUUUUUAUCUUCAAGCCGAUGACGGAAAAAUAGUUAUAUUCCAGGUGACAACUGAGCUUCAUGGAUUCAUCUAAAUACUAACAACAGUAAACAACAGAGGAUUGAGCAUCA
# B22: ENSG00000198589:be:win_601|CDS|ENSG00000198589|bound_else_gene|NA|bound_elsewhere_windowed (ssRNA)
# RNA: GGGAGUUCUACAGUCCGACGAUCUAUGGUCCUGAUGCCUUUUUUAACUUUCCAGGAAAGAGUGCUGCAGCUAUUGCAUUACCUCCUAUAGCCAAAUGGCCAUACCAGAAUGGUUUUACAUUUCAUACAUGGCUUAGAAUGGAUCAACAGAGGAUUGAGCAUCA
# Target: MSI1 full-length (mouse, UniProt Q61474 1-362)
# Test: nsRBNS (natural sequence RNA bind-n-seq); RBNS binding buffer (assumed for nsRBNS): 25 mM Tris pH 7.5, 150 mM KCl, 3 mM MgCl2, 0.01% Triton X-100, 500 ug/ml BSA, 20 U/ml SUPERase-In, 4 C; UNK is unkempt and MSI1 is Musashi-1; names of the RNAs are library labels; protein concentration not given here; high values mean tight binding
# UniProt Q61474, sequence (Q61474 whole entry): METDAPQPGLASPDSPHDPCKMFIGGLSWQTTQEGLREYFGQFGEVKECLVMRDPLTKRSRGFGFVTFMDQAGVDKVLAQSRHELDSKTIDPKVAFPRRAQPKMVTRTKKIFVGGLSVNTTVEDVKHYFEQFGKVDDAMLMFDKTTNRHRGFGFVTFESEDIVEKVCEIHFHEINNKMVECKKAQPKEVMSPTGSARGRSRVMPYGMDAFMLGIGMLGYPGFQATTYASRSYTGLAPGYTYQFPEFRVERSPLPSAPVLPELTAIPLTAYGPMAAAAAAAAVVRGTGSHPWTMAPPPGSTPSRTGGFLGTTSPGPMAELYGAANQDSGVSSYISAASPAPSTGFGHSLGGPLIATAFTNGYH
row,Binder,binding signal [enrichment R]
1,B1,0.566
2,B2,0.483
3,B3,7.14
4,B4,0.444
5,B5,4.08
6,B6,0.938
7,B7,0.525
8,B8,0.522
9,B9,0.533
10,B10,3.27
11,B11,18.4
12,B12,0.536
13,B13,2.1
14,B14,0.47
15,B15,0.292
16,B16,0.943
17,B17,7.35
18,B18,1.07
19,B19,0.628
20,B20,0.357
21,B21,0.672
22,B22,0.279
